Sequences and labels used below:
T1: UNK ZnF1-3 (human, UniProt Q9C0B0 31-174)
T1 sequence: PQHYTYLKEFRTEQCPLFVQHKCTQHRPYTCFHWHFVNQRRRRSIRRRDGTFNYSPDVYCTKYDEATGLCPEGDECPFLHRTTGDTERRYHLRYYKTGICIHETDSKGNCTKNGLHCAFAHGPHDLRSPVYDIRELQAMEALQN

B1: 220340931_220344267_2949_CDS_ENSG00000118873_ENST00000358951|human|control|control (ssRNA)
RNA: GGGAGUUCUACAGUCCGACGAUCAUCUCUUUCUUCAUUAGCCAGUUUUAAUACUUCAGGGCUGAAGUCCUGUUUAAAUAUCCACUUGGCUACACUGUCUGCAAUGCCACCUUUUCCUCCUUCUAAUAACUUUUUAACAGAAAGCAACAGAGGAUUGAGCAUCA
B2: chr17:66335897:66335898:-_ENSMUSG00000034647_ENSMUST00000038116|mus_mus|FALSE|FALSE (ssRNA)
RNA: GGGAGUUCUACAGUCCGACGAUCUUUUAAUUUAUGUUUUUUUAAUGUUUUACCCUCUUUAUCCAUCUUCUUCAGUGUGCAGUCUGAGUUUUCAAAUGCUGGAUUAUGAUCUUCAUCUUUAAUUUUGGCAUUUGAUUUUUCACCCAACAGAGGAUUGAGCAUCA
B3: chr16:42174308:42174309:+_ENSMUSG00000061080_ENSMUST00000099761|mus_mus|FALSE|FALSE (ssRNA)
RNA: GGGAGUUCUACAGUCCGACGAUCGUAUCUGUGUGACGCAUUUUUGUGUGUUUUUGUAAUUAUUUUUAAAUUUUUAUUCUAUUAACAUUUGCUGAGAAGGCAGAACAGGGACGCUGCCAGCAGCCACAGUGGUACGGCCAGACUCAACAGAGGAUUGAGCAUCA
B4: chr4:41265268:41265269:+_ENSG00000154277_ENST00000284440|hu_hu|FALSE|FALSE (ssRNA)
RNA: GGGAGUUCUACAGUCCGACGAUCAAAAGGCAUUCGUCCAUCAAGUUCAUAGAGGUGGCCAUCCACGUUGUUAAACAGAAUAAAAUGGAAAUUCACCUUGUCAUCUACCCGACAUUGGCCUUCCUGUGCCACGGCAUCAUGGGCCAACAGAGGAUUGAGCAUCA
B5: chr5:143665172:143665173:-_ENSMUSG00000029580_ENSMUST00000100497|perfect_dup|motif|central (ssRNA)
RNA: GGGAGUUCUACAGUCCGACGAUCUUUGGGAGGGUGAGGGACUUCCUGUAACCACUUAUUUCAUGGAUACUUGGAAUGACGGUUAAAAAAAGACAAAACCAAAAAAAAAAAAAAACAAAACAAUGUACAAAGUCCUCAGCCACACAACAGAGGAUUGAGCAUCA
B6: chr7:54825262:54825263:-_ENSG00000132432_ENST00000352861|hu_hu|hu_hu_hu_mus_False|8_58 (ssRNA)
RNA: GGGAGUUCUACAGUCCGACGAUCCUGCCGGCUGGGCUCCACAAACUGCAUUACCUGAUCCAUGUUUGUUGGAUGGCACACCUAAAACGUAGAGACACGUAGCUCAGGAGAGAACCGAGCCCAACGGCACCGGAACCUGGCAACCAACAGAGGAUUGAGCAUCA
B7: chr7:90019327:90019328:+_ENSMUSG00000057706_ENSMUST00000082237|mus_mus|FALSE|FALSE (ssRNA)
RNA: GGGAGUUCUACAGUCCGACGAUCGAAAUAUAAUUUUUCAAGUCAAAAAAAGAAUAAAAUACUUCAAUCUGUAUUAAUGCAAUUUCUCUUUAAAACUUUUAAAGGUUUUUUUUUUUAAUAUAUAAGAGAUAUGUUACAGUUUUACAACAGAGGAUUGAGCAUCA
B8: chr12:1897663:1897664:+_ENSG00000006831_ENST00000357103|hu_hu|motif|central (ssRNA)
RNA: GGGAGUUCUACAGUCCGACGAUCUUGUGGCUUUAGCAUAAUUUAUAAAGGGGAAGAGGGAAAAUACUGAAAAAGGCCACGGUUUAAUGGUGAAAGAAUGAAGCUGUAGAGGUCCCAACCAGCCUAGGGCCAAAAAAGAAAAUUCAACAGAGGAUUGAGCAUCA
B9: chr2:31148548:31148549:+_ENSMUSG00000062661_ENSMUST00000000199|mus_mus|FALSE|FALSE (ssRNA)
RNA: GGGAGUUCUACAGUCCGACGAUCAGCUGGGGGAACAGUACAUUAGCCAUUUAGCAAUGCCCACCUUCCCCUCUCCAAAAAUGGGGCACAGUAUCUGAGAAAAAAAAAAGAGGAAAAGAUUUUUGGCUUCUUGGCCGCUGCAGGCAACAGAGGAUUGAGCAUCA
B10: chr1:10529278:10529279:-_ENSG00000160049_ENST00000377038|hu_mus|FALSE|FALSE (ssRNA)
RNA: GGGAGUUCUACAGUCCGACGAUCCUCUUGGGAAACCCAAGCCGUCCCUCCAUCGGAAUCAUUAUAAAUCCACUUCUCAUUGCAGGCCAACGCCACAAACUUCGUAUUGGAAGGAAGGCAGAGGAAGUAGUCAUCGUCAUCCACCAACAGAGGAUUGAGCAUCA
B11: chr7:51716546:51716547:+_ENSMUSG00000047085_ENSMUST00000058667|mus_mus|FALSE|FALSE (ssRNA)
RNA: GGGAGUUCUACAGUCCGACGAUCUGGGAUGCUUUCGAUGGGGUUGUUGCGCAGCCACAGCUCCCGGAGCUUGGACAGGUACUCAAAGGCCUGCGUGGGCACGGUUGUCAGCCGGUUGUCGAAGAGUUCCAGUGUGUUGAGACUCAACAGAGGAUUGAGCAUCA
B12: chr5:92873050:92873051:-_ENSMUSG00000029426_ENSMUST00000031377|mus_mus|motif|central (ssRNA)
RNA: GGGAGUUCUACAGUCCGACGAUCUCCCAGGGCCCAACCACAAAAAGUUUCUACACAAGUUUAUUAAAUACUUCCGGGACACAUGAACACAGUUUUAGAGACACGAUUUUAUAAAGCAGAAUUGCCAGCCAUGUCACCCUGCUCCAACAGAGGAUUGAGCAUCA
B13: chr2:181367561:181367562:+_ENSMUSG00000002455_ENSMUST00000002529|mus_hu|FALSE|FALSE (ssRNA)
RNA: GGGAGUUCUACAGUCCGACGAUCAACCCGCUUCUUUGCACGAAUGUCCGUUUCCAGCUCUGCGGCUCUGAUGUAAAUCCUGACAGACUGUGGGAGAUGACGGACAGCUUGGGCUACCACGGCCUUGGCUGUGUCCCCAGGCUGCAACAGAGGAUUGAGCAUCA
B14: 77158072_77191296_765_3pUTR_ENSG00000186908_ENST00000426126|human|control|control (ssRNA)
RNA: GGGAGUUCUACAGUCCGACGAUCCAUGUGCUGUAAUCAUCAAUAUGAGUUUUCCGUCCAAGAGGUUCACCAUAUCCAUGGUUAUAAUGGCUUUGGGGUUUGAUUUCCUCUGGGUGGAGAAGGGGCACACAGCCCGCUUCGGUACAACAGAGGAUUGAGCAUCA
B15: chr7:141438946:141438947:+_ENSG00000106028_ENST00000265304|hu_mus|hu_hu_hu_mus_True|18_58 (ssRNA)
RNA: GGGAGUUCUACAGUCCGACGAUCGACGAAAUACCUGUAACACAGGUCUUCGAAACAUGGCUUCUGUUUUUCUUACAGUCUAAUCUUUAGGCUUUUCCUAAAGGAAAGAAAGAAAAGGCCCAGCCACUAAAUCAAGAAACUACACAACAGAGGAUUGAGCAUCA
B16: chr7:54823571:54823572:-_ENSG00000132432_ENST00000352861|hu_mus|hu_hu_hu_mus_False|8_8 (ssRNA)
RNA: GGGAGUUCUACAGUCCGACGAUCUCCCAUGAUAGCAAAUCCUAUAGCUGUAGCCAUGGCAAUCUUCUGGAAUUCUUUUCUGUCGGGUUUGGUGCAUCUUUUAACCAGCCGAAUUGAGUCCUUUACAAACUGCCGACUGGGCUCCAACAGAGGAUUGAGCAUCA
B17: chr13:13598695:13598696:+_ENSMUSG00000005397_ENSMUST00000005532|mus_mus|FALSE|FALSE (ssRNA)
RNA: GGGAGUUCUACAGUCCGACGAUCCACCAAACCCGUGUCAAACAGCACUCGGCGCUGGGUGCCAUCCAUCUUUGCAACUUCUAUUCGAUCCAACUGAGAGUCCGUCCAGAAGAUGGUUCGACCAAGAUGGUCAAGGGCAAUGCCCAACAGAGGAUUGAGCAUCA
B18: chr5:134670393:134670394:-_ENSG00000113648_ENST00000304332|hu_hu|FALSE|FALSE (ssRNA)
RNA: GGGAGUUCUACAGUCCGACGAUCUAAAAGACGCUGUUCUCCCCACUGCUGUGCGUCAAUCAGGGUUUCAUUAAAAUAAAACUAUAAAAUCUCCUAGGUUACACUAAGUCAGACACGGUCUGGAACACAGUGCUUAACAACAGUCAACAGAGGAUUGAGCAUCA
B19: chr11:72491332:72491333:+_ENSMUSG00000020794_ENSMUST00000021148|perfect_dup|motif|central (ssRNA)
RNA: GGGAGUUCUACAGUCCGACGAUCAGCAUCAACAUUAGCAGGUGAGUCUCCAUUAGGGUCUGCCAGCAUAGAAAUGACACGGAUCAUGAUGGUUUCCACAGUGUGGAUAGGGAGCCAGCGUUCCUCUGGCUUUUCAUAACCAUACAACAGAGGAUUGAGCAUCA
B20: chrM:11124:11125:+_ENSG00000198886_ENST00000361381|hu_hu|FALSE|FALSE (ssRNA)
RNA: GGGAGUUCUACAGUCCGACGAUCUCUGGCUGGUUGCCUCAUCGGGUGAUGAUAGCCAAGGUGGGGAUAAGUGUGGUUUCGAAGAAGAUAUAAAAUAUGAUUAGUUCUGUGGCUGUGAAUGUUAUAAUUAAGGAGAUUUGUAGGCAACAGAGGAUUGAGCAUCA
B21: chr1:39494447:39494448:+_ENSG00000168653_ENST00000372967|hu_mus|hu_hu_hu_mus_False|88_88 (ssRNA)
RNA: GGGAGUUCUACAGUCCGACGAUCGCACCGAGCGGCGUUCUUAUAGGGCUGUUCACCGCUUAGGAACAUAAAGUGCCGGUCCAGGCUGAUGCCCAGCUUUUUCUGUAUGUCAAGGAAAGGCAUGGCUCUGCAGUGCCCUUGUCACAACAGAGGAUUGAGCAUCA
B22: 122143246_122143366_4319_3pUTR_ENSG00000114030_ENST00000344337|human|control|control (ssRNA)
RNA: GGGAGUUCUACAGUCCGACGAUCCAAGUUCCAACAUAUCUGAGUUAUGCUACUUCACUUUUAGCCAAUUCCAACUUUGAUACUUUAAGAAAAAAUCAUUUUAUUGUUAAAAAAGAAAAAAAAACUUAGAUCUUAUAGUUCAUGCAACAGAGGAUUGAGCAUCA

Some of the results follow.

The target of the assay is T1, UNK ZnF1-3. In words: nsRBNS (natural sequence RNA bind-n-seq); RBNS binding buffer (assumed for nsRBNS): 25 mM Tris pH 7.5, 150 mM KCl, 3 mM MgCl2, 0.01% Triton X-100, 500 ug/ml BSA, 20 U/ml SUPERase-In, 4 C; UNK is unkempt and MSI1 is Musashi-1; names of the RNAs are library labels; protein concentration not given here; high values mean tight binding.
With B1, the binding signal was 0.669 enrichment R.

B2 displayed a binding signal of 0.17 enrichment R.

Regarding B3, the binding signal turned out to be 3.2 enrichment R.

Molecule B4 displayed a binding signal of 1.02 enrichment R.

B5: the binding signal came out at 1.06 enrichment R.

B6 gave a binding signal of 1.17 enrichment R.

As for B7, the binding signal turned out to be 2.97 enrichment R.

Molecule B8 came in with a binding signal of 2.82 enrichment R.

B9 registered a binding signal of 2.7 enrichment R.

B10: the binding signal was determined as 1.11 enrichment R.

In turn, B11 gave a binding signal of 0.613 enrichment R.

B12 yielded a binding signal of 2.18 enrichment R.

The molecule B13 registered a binding signal of 0.681 enrichment R.

B14 returned a binding signal of 0.938 enrichment R.

Take B15: the binding signal was 0.4 enrichment R.

Regarding B16, the binding signal is 0.757 enrichment R.

For B17, the binding signal amounted to 1.06 enrichment R.

With B18, the binding signal worked out at 1.23 enrichment R.

As for B19, the binding signal is 1.16 enrichment R.

B20: the binding signal turned out to be 2.63 enrichment R.

Regarding B21, the binding signal came to 0.841 enrichment R.

Turning to B22, the binding signal was 0.767 enrichment R.

The values above are taken from article PMC12136788.
